Data as given in PubChem BioAssay AID1345083 (National Center for Advancing Translational Sciences (NCATS), 2018).
Screen size: about 94,000 compounds; about 6,200 (6.6%) were called active. The shares of active, inactive and inconclusive entries below differ from those in the screen. Calls follow the shape of the dose curve; as a rule, active = well fitted inhibition curve with a large enough effect; inconclusive = small, poorly fitted or top-dose-only effect; inactive = flat fitted curve, though single readings scatter. A potency beside an inconclusive call is a rough fit, not a confirmed value.
Potency is read from the fitted curve at half-maximal effect; tags tell the direction and shape of the fitted curve.

Assay: Cytotoxic Profiling in HEK 293 Cell Line of Diverse Libraries Using Quantitative High-Throughput Screening; also: nearly all actives have a fitted effect of over 60% in size
Conditions: HEK 293 viability, ATP luminescence (CellTiter-Glo), 48-72 h; series mostly up to 115 µM
Procedure, shortened: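 Cytotoxicity was scored by loss of ATP-coupled luminescence (CellTiter-Glo) in HEK 293 cells. Compound treatment ran 48 or 72 hr at 37 degree Celsius, 5% CO2, 95% humidity.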
With `Cc1ccccc1CC(=O)N1CCCC(c2noc(COc3ccccc3)n2)C1` (stereo not given) the Potency was active: 44.7 µM. With `CN(C)c1cccc(C(=O)N2CCCN(c3cc(-c4ccccc4)[nH]n3)CC2)c1` the Potency was inconclusive: 44.7 µM [inhibitor, partial curve, poor fit]. With `O=C(c1ccc(Br)o1)N1CCN(C2CCN(Cc3ccccn3)C2=O)CC1` (stereo not given) the Potency was inconclusive: 100 µM [inhibitor, single point]. With `COc1ccc(-c2c(C(=O)NC3CCCCC3)nc3sccn23)cc1` the Potency was inconclusive: 100 µM [inhibitor, single point]. In the case of `COc1cccc(-c2cc(C3CCN(C(=O)Nc4cccc(SC)c4)CC3)[nH]n2)c1`, the Potency is reported as inconclusive: 50.1 µM [inhibitor, partial curve, poor fit]. For `Cc1cc(NC(=O)CN2C(=O)NC(c3ccccc3Cl)C3=C2COC3=O)ccc1Br` (stereo not given), the Potency was active: 44.7 µM. For `COC1CCN(c2cc(-c3ccsc3)nc3c(C)noc23)CC1`, the Potency was active: 79.4 µM. With `O=C(c1ccc(F)cc1)N1CCC2(CC1)CCN(Cc1cccs1)c1ccccc1O2` the Potency was active: 44.7 µM. With `CNC(=O)C1CCCN1Cc1cccc(-c2cccc(OC)c2)c1` (stereo not given) the Potency was inconclusive: 50.1 µM [inhibitor, partial curve, poor fit]. For `O=C(Nc1ccc(Cl)c(Cl)c1)c1cc2n(n1)CC(c1ccc(Cl)cc1)OC2` (stereo not given), the Potency was inconclusive: 50.1 µM [inhibitor, partial curve, poor fit]. In the case of `COc1cccc(CNC(=O)Cn2cccc2-c2nc(-c3ccc(OC)c(F)c3)no2)c1`, the Potency is reported as inconclusive: 89.1 µM [inhibitor, single point]. For `O=C(NCc1ccccc1)[C@@H]1C[C@@H](c2ccc(F)cc2)N([S+](=O)([O-])c2cccnc2)C1`, the Potency was inconclusive: 112 µM [inhibitor, partial curve, poor fit]. With `COc1ccccc1-c1cccc(CN2CCCC(C(=O)NCc3ccccc3)C2)c1` (stereo not given) the Potency was active: 11.2 µM. In the case of `O=C(NCC1CC1)c1ccc2nnc(-c3ccc(C(F)(F)F)cc3)n2c1`, the Potency is reported as inconclusive: 39.8 µM [inhibitor, partial curve, poor fit]. For `Cc1ccc(C2Cn3nnc(C(=O)N4CCN(C(=O)Cc5cccs5)CC4)c3CO2)cc1` (stereo not given), the Potency was inconclusive: 31.6 µM [inhibitor, full curve]. For `CN(Cc1ccccc1)C(=O)[C@H]1O[C@H](CCN2CCN(c3ccccc3)CC2)CC[C@@H]1O`, the Potency was inconclusive: 89.1 µM [inhibitor, single point]. For `COc1ccc(C(=O)N[C@@H]2CN(Cc3ccccc3)C[C@H]2CN(C)C)cc1`, the Potency was active: 5.62 µM. With `COCCN1C(=O)c2cccn2CC1CNC(=O)c1ccc(-n2c(C)ccc2C)cc1` (stereo not given) the Potency was active: 25.1 µM. In the case of `O=C(CN1C(=O)CCC1=O)N1CCC(c2noc(-c3ccccn3)n2)C1` (stereo not given), the Potency is reported as “inactive”. With `O=C(c1ccc(Cl)nc1)N1CCCC(C(=O)N2CCCC(c3nc4ccncc4[nH]3)C2)C1` (stereo not given) the Potency was “inactive”. For `COc1ccc(C2Cn3nnc(C(=O)N4CCC(C(=O)NCCc5ccccc5)CC4)c3CO2)cc1` (stereo not given), the Potency was “inactive”. With `Cc1nc(C2CC23CCN(C(=O)Nc2ccccc2F)CC3)no1` (stereo not given) the Potency was “inactive”. In the case of `Cc1nn(-c2ccccc2)c2c1C(C)N(C1CN(C(=O)Cc3ccccc3)C1)C2=O` (stereo not given), the Potency is reported as inconclusive: 56.2 µM [inhibitor, partial curve, poor fit]. In the case of `O=C1CCN(S(=O)(=O)c2ccccc2)CCCN(Cc2ccccc2)CCN1`, the Potency is reported as “inactive”. For `Cc1ccccc1-c1cc(-c2ccc(=O)[nH]c2)c2cncn2c1`, the Potency was active: 70.8 µM. For `COc1ccc(-c2ccc3nnc(CNC(=O)COc4ccccc4)n3n2)cc1`, the Potency was “inactive”. For `CN1[C@@H](CCC(=O)NCc2ccccc2)CNC(=O)[C@@H]2[C@H]1CCN2Cc1cccc(Cl)c1`, the Potency was inconclusive: 89.1 µM [inhibitor, single point]. In the case of `COCC(=O)NCc1cc2n(n1)CCCN(Cc1cc3ccccc3s1)C2`, the Potency is reported as active: 20 µM. In the case of `Cc1ccc(-c2cc(O)c3c(c2)CNCCO3)s1`, the Potency is reported as “inactive”. For `NC(Cc1ccccc1)C(=O)N1CCN(c2ccccn2)CC1` (stereo not given), the Potency was “inactive”. For `O=C(c1ccc(Cl)s1)N1CCC(N(C(=O)C2CC2)C2CCOCC2)CC1`, the Potency was “inactive”. With `Cc1cccc(-c2cccc(CN3CCC(NC(=O)c4ccccc4C)CC3)c2)c1` the Potency was active: 39.8 µM. For `C=CCOc1c(OC)ccc2c1CN(C1CCCC1)C(=O)CCN2CC(O)COc1ccc(OC)cc1` (stereo not given), the Potency was inconclusive: 50.1 µM [inhibitor, partial curve, poor fit]. With `CCCCC(=O)Nc1cc(NC(=O)C(C)NS(C)(=O)=O)ccc1OC` (stereo not given) the Potency was “inactive”. In the case of `COc1ccc(Nc2ncncc2-c2nc(-c3ccccc3)no2)cc1OC`, the Potency is reported as “inactive”. With `COC1CN(c2cccc(F)c2)C12CCN(C(=O)c1sc(C)nc1C)CC2` (stereo not given) the Potency was inconclusive: 89.1 µM [inhibitor, single point]. In the case of `COc1cccc([S+](=O)([O-])N2CCN(CCn3nc4n(c3=O)CCCC4)CC2)c1`, the Potency is reported as “inactive”. For `O=C(c1cccc2[nH]ccc12)N1CCC(Cc2nncn2Cc2ccccc2)C1` (stereo not given), the Potency was inconclusive: 50.1 µM [inhibitor, partial curve, poor fit]. In the case of `COc1cc(F)ccc1-c1cc2c(ccn2Cc2ccncc2)c(N2CCOCC2)n1`, the Potency is reported as active: 79.4 µM. In the case of `CN1CCN(c2ccc(-c3noc([C@@H]4CCCN4Cc4ccccc4)n3)cn2)CC1`, the Potency is reported as active: 70.8 µM. With `O=C(c1cc(-c2ccccc2)n[nH]1)N1CCc2c(nc(-c3ccccc3)[nH]c2=O)C1` the Potency was inconclusive: 44.7 µM [inhibitor, partial curve, poor fit]. For `Cc1nnc2ccc(N3CCN(C(=O)C(C)(C)C)CC3)nn12`, the Potency was “inactive”. In the case of `CC(C)(C)CN1CCOC[C@H]1c1ncc(-c2ccc(F)cc2F)[nH]1`, the Potency is reported as inconclusive: 100 µM [inhibitor, partial curve]. For `CSc1ccc(-c2cccc(C(=O)NCC(=O)N3CCCCC3)c2)cc1`, the Potency was inconclusive: 11.2 µM [inhibitor, full curve, poor fit]. For `Cn1ncc2c(C(=O)NCc3cccc(C(F)(F)F)c3)cc(-c3ccc(Cl)cc3Cl)nc21`, the Potency was “inactive”.
